Measured values published in PMC3040723, “Three hydrophobic amino acids in Escherichia coli HscB make the greatest contribution to the stability of the HscB-IscU complex” (BMC Biochemistry, 2011).

Tests used:
Assay in all cases: ITC; 2.5-4 mM apo-IscU (injection syringe) titrated into 0.25-0.4 mM HscB (sample cell); 25 °C; 50 mM HEPES pH 7.5, 150 mM NaCl, 4 mM TCEP
Conditions in all cases: both partners purified
[1] = target: T1, HscB(D103A) (E. coli, UniProt P0A6L9 1-171, D103A)
T1 construct: HscB, Escherichia coli, single alanine substitution; Uniformly 15N-labelled for the NMR experiments; source: Escherichia coli, purified (DEAE-cellulose, size exclusion chromatography)
T1 sequence (looked up): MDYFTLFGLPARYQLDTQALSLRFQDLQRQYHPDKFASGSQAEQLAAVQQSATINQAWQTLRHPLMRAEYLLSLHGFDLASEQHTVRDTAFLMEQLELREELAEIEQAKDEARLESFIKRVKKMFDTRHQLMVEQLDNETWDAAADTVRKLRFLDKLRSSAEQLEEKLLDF

[2] = target: T2, HscB(E104A) (E. coli, UniProt P0A6L9 1-171, E104A)
T2 construct: HscB, Escherichia coli, single alanine substitution; source: Escherichia coli, purified (DEAE-cellulose, size exclusion chromatography)
T2 sequence (looked up): T1 sequence (looked up) with A103D, E104A

[3] = target: T3, HscB(F153A) (E. coli, UniProt P0A6L9 1-171, F153A)
T3 construct: HscB, Escherichia coli, single alanine substitution; source: Escherichia coli, purified (DEAE-cellulose, size exclusion chromatography)
T3 sequence (looked up): T1 sequence (looked up) with A103D, F153A

[4] = target: T4, HscB(S160A) (E. coli, UniProt P0A6L9 1-171, S160A)
T4 construct: HscB, Escherichia coli, single alanine substitution; source: Escherichia coli, purified (DEAE-cellulose, size exclusion chromatography)
T4 sequence (looked up): T1 sequence (looked up) with A103D, S160A

[5] = target: T5, HscB(R87A) (E. coli, UniProt P0A6L9 1-171, R87A)
T5 construct: HscB, Escherichia coli, single alanine substitution; source: Escherichia coli, purified (DEAE-cellulose, size exclusion chromatography)
T5 sequence (looked up): T1 sequence (looked up) with R87A, A103D

[6] = target: T6, HscB(T89A) (E. coli, UniProt P0A6L9 1-171, T89A)
T6 construct: HscB, Escherichia coli, single alanine substitution; source: Escherichia coli, purified (DEAE-cellulose, size exclusion chromatography)
T6 sequence (looked up): T1 sequence (looked up) with T89A, A103D

[7] = target: T7, HscB(L92A) (E. coli, UniProt P0A6L9 1-171, L92A)
T7 construct: HscB, Escherichia coli, single alanine substitution; source: Escherichia coli, purified (DEAE-cellulose, size exclusion chromatography)
T7 sequence (looked up): T1 sequence (looked up) with L92A, A103D

[8] = target: T8, HscB(E97A) (E. coli, UniProt P0A6L9 1-171, E97A)
T8 construct: HscB, Escherichia coli, single alanine substitution; source: Escherichia coli, purified (DEAE-cellulose, size exclusion chromatography)
T8 sequence (looked up): T1 sequence (looked up) with E97A, A103D

B1: apo-IscU (natural protein, E. coli, UniProt P0ACD4 1-128, looked up)
chain: MAYSEKVIDHYENPRNVGSFDNNDENVGSGMVGAPACGDVMKLQIKVNDEGIIEDARFKTYGCGSAIASSSLVTEWVKGKSLDEAQAIKNTDIAEELELPPVKIHCSILAEDAIKAAIADYKSKREAK
notes: No tag is mentioned; purified by ion exchange and gel filtration, so probably untagged whole protein; source: Escherichia coli, purified (DEAE-cellulose, DEAE-Biogel, size exclusion chromatography)
With B1 the Ka [1] was 54000 M⁻¹, the dH [1] was -1.61 kcal/mol and the “stoichiometry N” value [1] was 1.04. For the same binder, the Ka [2] was 172000 M⁻¹, the dH [2] was -2.8 kcal/mol and the “stoichiometry N” value [2] was 0.83. The Ka [3] was 5000 M⁻¹, the dH [3] was 0.58 kcal/mol and the “stoichiometry N” value [3] was 0.78. For the same binder, the Ka [4] was 92000 M⁻¹, the dH [4] was -1.58 kcal/mol and the “stoichiometry N” value [4] was 1.05. For the same binder, the Ka [5] was 28000 M⁻¹, the dH [5] was -0.88 kcal/mol and the “stoichiometry N” value [5] was 1.04. For the same binder, the Ka [6] was 59000 M⁻¹, the dH [6] was -1 kcal/mol and the “stoichiometry N” value [6] was 1.08. The Ka [7] was 5000 M⁻¹, the dH [7] was 0.41 kcal/mol and the “stoichiometry N” value [7] was 0.7. The Ka [8] was 173000 M⁻¹, the dH [8] was -2.6 kcal/mol and the “stoichiometry N” value [8] was 0.96.

Substitutions are numbered along the chain they refer to.
